Experimental data reported in paper PMC9331078.
Results are given in words; binding and its absence hold for the method and conditions named. Binding seen in cells or lysates may run through a third protein. Some entries that bind do so weakly or less than the wild type. One block for each substance: values may come before it.

The chains behind the UniProt entries cited, without tags or fusion partners. Where a name states a change or a piece, a line headed by the entry shows the natural chain unless it says otherwise. Residues count along the entry.
UniProt Q06330: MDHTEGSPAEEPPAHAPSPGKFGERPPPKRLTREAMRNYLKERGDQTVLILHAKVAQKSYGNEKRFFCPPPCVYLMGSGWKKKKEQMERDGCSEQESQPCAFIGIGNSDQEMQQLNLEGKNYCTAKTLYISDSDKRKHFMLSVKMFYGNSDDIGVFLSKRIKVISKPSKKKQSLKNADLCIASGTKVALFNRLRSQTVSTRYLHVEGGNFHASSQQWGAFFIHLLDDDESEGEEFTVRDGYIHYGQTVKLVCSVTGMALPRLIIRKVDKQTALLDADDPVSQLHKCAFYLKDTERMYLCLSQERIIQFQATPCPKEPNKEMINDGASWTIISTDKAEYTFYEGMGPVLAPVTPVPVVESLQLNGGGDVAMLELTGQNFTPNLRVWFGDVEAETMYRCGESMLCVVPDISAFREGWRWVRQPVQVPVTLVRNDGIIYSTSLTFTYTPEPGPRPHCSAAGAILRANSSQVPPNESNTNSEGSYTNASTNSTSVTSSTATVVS
UniProt P26358: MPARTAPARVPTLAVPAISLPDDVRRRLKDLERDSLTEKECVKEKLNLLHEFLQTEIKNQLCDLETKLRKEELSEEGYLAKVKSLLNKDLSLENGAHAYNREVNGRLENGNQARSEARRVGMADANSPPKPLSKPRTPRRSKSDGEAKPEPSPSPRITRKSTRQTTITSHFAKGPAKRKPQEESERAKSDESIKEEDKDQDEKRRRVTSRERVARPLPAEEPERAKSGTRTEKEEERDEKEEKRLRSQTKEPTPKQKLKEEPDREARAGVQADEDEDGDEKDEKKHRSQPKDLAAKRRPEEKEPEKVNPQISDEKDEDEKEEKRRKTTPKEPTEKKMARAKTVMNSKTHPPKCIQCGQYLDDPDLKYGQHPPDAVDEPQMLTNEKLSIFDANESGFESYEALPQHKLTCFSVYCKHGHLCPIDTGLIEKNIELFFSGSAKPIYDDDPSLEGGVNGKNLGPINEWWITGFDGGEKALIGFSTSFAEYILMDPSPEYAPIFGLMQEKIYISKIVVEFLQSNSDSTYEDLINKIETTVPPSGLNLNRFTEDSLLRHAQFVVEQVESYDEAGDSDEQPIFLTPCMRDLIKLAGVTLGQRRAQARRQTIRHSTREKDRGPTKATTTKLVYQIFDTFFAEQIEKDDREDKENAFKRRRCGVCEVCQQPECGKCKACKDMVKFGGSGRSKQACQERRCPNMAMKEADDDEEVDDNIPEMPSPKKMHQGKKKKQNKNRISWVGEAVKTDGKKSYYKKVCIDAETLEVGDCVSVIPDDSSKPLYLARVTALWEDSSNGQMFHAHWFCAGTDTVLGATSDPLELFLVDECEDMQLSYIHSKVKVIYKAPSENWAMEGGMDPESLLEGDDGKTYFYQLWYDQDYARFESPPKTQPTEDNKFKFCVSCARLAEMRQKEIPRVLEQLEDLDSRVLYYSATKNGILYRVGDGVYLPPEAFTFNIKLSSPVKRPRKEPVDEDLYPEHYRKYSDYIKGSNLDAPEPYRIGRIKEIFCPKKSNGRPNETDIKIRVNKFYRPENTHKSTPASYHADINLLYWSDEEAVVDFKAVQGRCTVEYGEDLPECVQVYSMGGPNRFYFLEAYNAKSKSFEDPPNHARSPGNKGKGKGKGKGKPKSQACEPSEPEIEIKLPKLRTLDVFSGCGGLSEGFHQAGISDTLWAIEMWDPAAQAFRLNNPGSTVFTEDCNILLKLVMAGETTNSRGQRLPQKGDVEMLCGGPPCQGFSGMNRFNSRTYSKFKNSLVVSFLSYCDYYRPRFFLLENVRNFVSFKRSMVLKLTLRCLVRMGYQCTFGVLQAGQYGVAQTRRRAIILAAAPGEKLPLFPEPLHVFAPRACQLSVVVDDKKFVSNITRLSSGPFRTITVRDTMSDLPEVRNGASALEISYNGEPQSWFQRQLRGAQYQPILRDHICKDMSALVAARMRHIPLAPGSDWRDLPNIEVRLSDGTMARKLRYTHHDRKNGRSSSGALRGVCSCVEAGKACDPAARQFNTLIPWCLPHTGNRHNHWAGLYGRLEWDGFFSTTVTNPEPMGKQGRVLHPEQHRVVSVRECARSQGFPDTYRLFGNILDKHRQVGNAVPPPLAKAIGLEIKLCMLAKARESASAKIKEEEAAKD
UniProt O43734: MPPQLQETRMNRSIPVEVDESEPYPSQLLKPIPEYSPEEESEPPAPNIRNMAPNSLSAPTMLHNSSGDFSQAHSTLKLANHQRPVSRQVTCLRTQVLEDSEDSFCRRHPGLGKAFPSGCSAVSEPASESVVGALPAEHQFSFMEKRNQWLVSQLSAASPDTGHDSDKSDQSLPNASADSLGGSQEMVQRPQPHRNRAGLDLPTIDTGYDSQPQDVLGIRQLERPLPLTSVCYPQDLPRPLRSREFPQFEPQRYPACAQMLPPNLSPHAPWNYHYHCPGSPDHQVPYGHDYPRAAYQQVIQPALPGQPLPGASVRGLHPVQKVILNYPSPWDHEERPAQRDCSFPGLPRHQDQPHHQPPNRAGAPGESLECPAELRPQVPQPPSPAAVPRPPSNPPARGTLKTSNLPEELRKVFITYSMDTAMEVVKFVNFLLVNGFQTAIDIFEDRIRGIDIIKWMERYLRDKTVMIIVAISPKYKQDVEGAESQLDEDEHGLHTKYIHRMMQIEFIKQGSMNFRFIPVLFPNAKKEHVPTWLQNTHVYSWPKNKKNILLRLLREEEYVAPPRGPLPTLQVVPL
UniProt P46531: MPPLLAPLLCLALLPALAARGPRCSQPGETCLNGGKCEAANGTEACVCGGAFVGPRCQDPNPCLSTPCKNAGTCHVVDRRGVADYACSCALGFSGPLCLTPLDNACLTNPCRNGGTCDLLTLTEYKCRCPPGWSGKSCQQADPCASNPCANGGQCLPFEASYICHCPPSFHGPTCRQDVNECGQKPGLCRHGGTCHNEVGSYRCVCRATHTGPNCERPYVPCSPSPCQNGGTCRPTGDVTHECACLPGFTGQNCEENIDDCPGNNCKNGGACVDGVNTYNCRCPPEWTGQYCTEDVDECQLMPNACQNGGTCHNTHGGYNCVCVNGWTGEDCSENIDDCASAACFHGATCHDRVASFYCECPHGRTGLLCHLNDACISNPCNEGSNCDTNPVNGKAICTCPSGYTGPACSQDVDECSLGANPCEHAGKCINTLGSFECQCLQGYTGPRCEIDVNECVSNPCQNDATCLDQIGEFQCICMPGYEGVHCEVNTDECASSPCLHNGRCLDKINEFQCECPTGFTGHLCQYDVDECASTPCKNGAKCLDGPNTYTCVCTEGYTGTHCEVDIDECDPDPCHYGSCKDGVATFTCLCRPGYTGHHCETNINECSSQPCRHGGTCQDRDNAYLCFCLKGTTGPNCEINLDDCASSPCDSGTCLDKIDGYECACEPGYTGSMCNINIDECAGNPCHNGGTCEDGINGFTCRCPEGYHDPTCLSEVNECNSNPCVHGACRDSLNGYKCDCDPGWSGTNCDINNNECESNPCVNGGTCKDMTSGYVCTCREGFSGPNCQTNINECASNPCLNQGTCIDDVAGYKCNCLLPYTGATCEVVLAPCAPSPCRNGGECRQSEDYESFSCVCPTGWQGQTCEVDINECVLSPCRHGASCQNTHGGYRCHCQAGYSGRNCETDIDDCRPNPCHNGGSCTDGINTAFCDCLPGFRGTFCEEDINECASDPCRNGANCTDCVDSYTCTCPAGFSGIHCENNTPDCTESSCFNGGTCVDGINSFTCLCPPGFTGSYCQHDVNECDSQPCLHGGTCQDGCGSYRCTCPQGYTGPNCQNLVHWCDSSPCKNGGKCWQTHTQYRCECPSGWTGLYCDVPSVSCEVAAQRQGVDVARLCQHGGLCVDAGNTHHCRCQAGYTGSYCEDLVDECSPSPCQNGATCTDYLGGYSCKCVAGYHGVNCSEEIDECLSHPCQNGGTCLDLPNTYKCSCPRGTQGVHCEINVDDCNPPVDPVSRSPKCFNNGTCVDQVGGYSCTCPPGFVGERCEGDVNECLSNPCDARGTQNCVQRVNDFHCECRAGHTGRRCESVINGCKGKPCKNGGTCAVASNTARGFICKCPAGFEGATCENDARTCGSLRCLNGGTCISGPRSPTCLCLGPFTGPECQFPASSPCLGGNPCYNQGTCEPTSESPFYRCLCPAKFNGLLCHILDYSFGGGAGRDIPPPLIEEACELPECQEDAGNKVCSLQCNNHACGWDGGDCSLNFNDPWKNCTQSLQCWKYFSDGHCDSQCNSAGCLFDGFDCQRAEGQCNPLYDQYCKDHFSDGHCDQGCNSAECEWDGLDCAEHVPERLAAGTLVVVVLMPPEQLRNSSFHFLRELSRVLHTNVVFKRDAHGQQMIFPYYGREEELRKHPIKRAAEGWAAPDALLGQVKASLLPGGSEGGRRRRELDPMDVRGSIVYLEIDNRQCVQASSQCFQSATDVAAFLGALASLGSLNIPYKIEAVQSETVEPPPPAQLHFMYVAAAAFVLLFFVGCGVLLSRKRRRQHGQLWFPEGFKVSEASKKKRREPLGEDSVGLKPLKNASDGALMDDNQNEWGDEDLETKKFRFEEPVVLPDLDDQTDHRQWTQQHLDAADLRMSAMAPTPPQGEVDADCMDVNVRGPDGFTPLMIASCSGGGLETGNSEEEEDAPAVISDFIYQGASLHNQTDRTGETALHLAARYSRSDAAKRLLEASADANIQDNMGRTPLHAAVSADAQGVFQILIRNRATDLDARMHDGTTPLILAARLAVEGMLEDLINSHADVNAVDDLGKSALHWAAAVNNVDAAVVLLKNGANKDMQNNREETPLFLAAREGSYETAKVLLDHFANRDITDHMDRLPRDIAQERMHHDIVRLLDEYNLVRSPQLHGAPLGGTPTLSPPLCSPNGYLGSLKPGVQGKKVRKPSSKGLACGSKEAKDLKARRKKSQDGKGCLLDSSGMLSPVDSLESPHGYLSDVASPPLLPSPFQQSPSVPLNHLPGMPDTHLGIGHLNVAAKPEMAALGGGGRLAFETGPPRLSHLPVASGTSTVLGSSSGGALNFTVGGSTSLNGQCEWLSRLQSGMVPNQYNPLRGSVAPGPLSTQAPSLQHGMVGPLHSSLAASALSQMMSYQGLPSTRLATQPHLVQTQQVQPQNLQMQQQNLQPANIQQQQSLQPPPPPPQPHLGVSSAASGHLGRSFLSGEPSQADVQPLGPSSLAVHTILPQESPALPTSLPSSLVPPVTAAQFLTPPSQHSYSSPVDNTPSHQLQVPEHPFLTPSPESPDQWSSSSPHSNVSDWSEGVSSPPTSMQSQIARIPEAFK
HA-NOTCH1: residues 19-2555 of P46531
UniProt Q92831: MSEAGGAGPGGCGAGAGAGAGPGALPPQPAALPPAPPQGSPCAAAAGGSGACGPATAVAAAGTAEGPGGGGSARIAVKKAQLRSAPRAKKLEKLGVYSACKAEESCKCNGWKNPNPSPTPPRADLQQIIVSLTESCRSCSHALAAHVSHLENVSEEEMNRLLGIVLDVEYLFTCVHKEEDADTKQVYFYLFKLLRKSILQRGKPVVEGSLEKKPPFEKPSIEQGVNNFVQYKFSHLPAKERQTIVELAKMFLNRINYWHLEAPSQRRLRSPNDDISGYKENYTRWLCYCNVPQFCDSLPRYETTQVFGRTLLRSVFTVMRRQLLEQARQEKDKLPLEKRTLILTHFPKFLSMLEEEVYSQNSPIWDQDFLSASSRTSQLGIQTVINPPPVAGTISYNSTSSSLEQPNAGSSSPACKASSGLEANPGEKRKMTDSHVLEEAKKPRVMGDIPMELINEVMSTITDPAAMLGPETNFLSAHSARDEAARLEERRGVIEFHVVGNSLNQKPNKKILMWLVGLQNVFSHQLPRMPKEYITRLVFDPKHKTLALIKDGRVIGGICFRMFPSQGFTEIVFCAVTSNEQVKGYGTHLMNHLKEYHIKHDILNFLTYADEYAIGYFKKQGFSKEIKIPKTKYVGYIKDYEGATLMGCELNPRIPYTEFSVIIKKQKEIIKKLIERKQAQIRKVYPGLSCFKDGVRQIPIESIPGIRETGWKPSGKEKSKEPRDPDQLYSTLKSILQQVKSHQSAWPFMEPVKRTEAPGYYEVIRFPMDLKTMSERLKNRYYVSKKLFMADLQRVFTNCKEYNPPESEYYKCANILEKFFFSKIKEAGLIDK

Tests used:
[1] = molecular target: RBPJ (human (endogenous in UOK109 or 786-O)) (UniProt Q06330); assay: co-IP; UOK109 or 786-O cells transfected with indicated lentivirus (TRAF3IP2 overexpression); IP with anti-Flag antibody or anti-RBPJ antibody; western blot
[2] = molecular target: Flag-DNMT1 (UniProt P26358); assay: co-IP; 786-O cells transfected with Flag-HNRNPK/Flag-DNMT1; IP with anti-Flag antibody or normal rabbit IgG; western blot
[3] = molecular target: Flag-TRAF3IP2 (UniProt O43734); assay: co-IP; 786-O cells transfected with Flag-TRAF3IP2 or HA-NOTCH1; IP with anti-Flag antibody, anti-HA antibody or normal rabbit IgG; western blot
[4] = molecular target: TRAF3IP2 (TRAF3 interacting protein 2) (human (endogenous in UOK109 and 786-O)) (UniProt O43734); assay: co-IP; UOK109 lysate, endogenous proteins; CoIP and reverse CoIP with anti-TRAF3IP2 antibody, anti-NOTCH1 antibody or normal rabbit IgG; western blot
[5] = molecular target: HA-NOTCH1 (UniProt P46531); assay: co-IP; 786-O cells transfected with Flag-TRAF3IP2 or HA-NOTCH1; IP with anti-Flag antibody, anti-HA antibody or normal rabbit IgG; western blot
[6] = molecular target: Flag-TRAF3IP2 (UniProt O43734); assay: co-IP; UOK109 cells transfected with Flag-TRAF3IP2, HA-NICD1 and V5-NECD1; IP with anti-Flag antibody; western blot

- binding [1]: binds
Substance: EP300 (from UniProt Q09472 1-2414)

- binding [1]: binds
Substance: Flag-TRAF3IP2 (from UniProt O43734 1-574)

- binding [2]: binds
Substance: HNRNPK (heterogeneous nuclear ribonucleoprotein K) (from UniProt P61978 1-463)

- binding [1]: binds
Substance: KAT2B (from UniProt Q92831 1-832)

- binding [3]: binds
- binding [4]: binds
Substance: NOTCH1 (from UniProt P46531 19-2555) (receptor)

- binding [5]: binds
Substance: TRAF3IP2 (TRAF3 interacting protein 2) (from UniProt O43734 1-574)

- binding [6]: no binding
Substance: V5-NECD1 (extracellular domain of NOTCH1) (from UniProt P46531 19-1735) (domain or fragment)
